Variants at the floor of the assay are shown more often than the library holds them.
B1: tRNA (parent)
chain: CUCUCGGUAGCCAAGUUGGUUUAAGGCGCAAGACUUUAAUUUAUCACUACGAAAUCUUGAGAUCGGGCGUUCGACUCGCCCCCGGGAGAUUUUUUCCUCGAGCAA

Variants of: B1
Assay: nonsense suppression (GFP-seq) (ratio to wild type); higher = more function; SUP4oc tRNA, yeast GFP reporter sort-seq
In short: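 Nonsense suppression (GFPSEQ) is the median GFP/RFP ratio of each sorting bin, weighted by the variant's estimated share of cells in that bin and expressed relative to the unmutated parent tRNA. Yeast strains carried genome-integrated variants of an ochre-suppressor tRNA from a library with ~3% random mutations, plus a galactose-driven GFP ochre reporter and RFP, and were grown in raffinose/galactose medium containing 80 mg/L adenine. Cells were sorted into GFP/RFP bins, each bin was Illumina-sequenced (phred ≥30), and variants were kept only with ≥100 reads and ≥30 cells.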

Nonsense suppression, 0.122:
A54G G73A

Nonsense suppression, 0.0321:
A54U A62G

Nonsense suppression, 0.867:
A54U A87G

Nonsense suppression, 0.0631:
U55C G66A

Nonsense suppression, ≤ 0.026:
C34A U55C U57A G73A U76G
C34A U57C
C34A U57G
C34A U63A C82G
C34A U63A G65U
C34A U70A
C34A U70C C81G
C34A U70G
C34A U70G G73C C77G C82A
C34A U71C
C34G
C34G A54G
C34G A60C C80A
C34G A60C U63G A89C
C34G A62U
C34G A74G
C34G A89G
C34G C56G U57C G61C
C34G C56U G66C G85C
C34G C64G
C34G C64U
C34G C68G
C34G C72A
C34G C75A
C34G C77A
C34G C79G
C34G C80A G88A
C34G G59A
C34G G59U C75G
C34G G59U G65U
C34G G61A C75U G78C
C34G G61U
C34G G61U G67C
C34G G65A C83U A87G
C34G G65U G66U
C34G G66A
C34G G67C A87U
C34G G69U U71A A74C
C34G G73C
C34G G78A C81G
C34G G78U
C34G G84A
C34G U55A A87C
C34G U55C U71G C75A
C34G U57A
C34G U57C U71A
C34G U57G G85A
C34G U70A
C34G U70G
C34G U71A G78C C79G C80G
C34G U71C
C34G U71C G86A
C34G U71G A87U
C34U
C34U A54C G67U
C34U A54G G61U U70G U76A G84A
C34U A54U U76C C80A
C34U A60G G78A
C34U A60U A74C
C34U A74C
C34U A74C C79A
C34U A74U
C34U C68U U70G C72G C75U
C34U C72U
C34U C75G
C34U C77A C82A
C34U C77G C79G A89U
C34U C79U
C34U C81A C83G G84U
C34U C81U
C34U C82A
C34U G59A C83G
C34U G59C U71A G84C
C34U G59U
C34U G65A
C34U G65U C82A G84U
C34U G66C U71C
C34U G67C G73U
C34U G69A A87G
C34U G69A A89C
C34U G69U C80G
C34U G73C
C34U G78A C79A
C34U G84A
C34U U35C
C34U U35G A74U G88A
C34U U55G C56A C75U C81A
C34U U57A
C34U U57A G66A
C34U U57C U76A
C34U U58A U71C
C34U U58C U76A G84A
C34U U58G G61C
C34U U58G G61C A89U
C34U U63C G85C
C34U U70A C77U
C34U U71A G73U
C34U U71C C77G
C34U U71G
C34U U76A
U35A A54C C80A G88C
U35A A54C U57C G86C
U35A A54G
U35A A54G U76C
U35A A60U G61A G73A C79U
U35A C56G
U35A C56G G73A C77U C79G
U35A C72U
U35A C80G
U35A C82G
U35A G59A
U35A G61C C64A
U35A G66A C81G G88A
U35A G66C
U35A G66U G67U A74U
U35A G67A
U35A G67C G73U
U35A G69A G84C A89G
U35A G69C C77U
U35A G73A G86A
U35A G78A
U35A G78A C83A
U35A G86C
U35A G86U
U35A U57A
U35A U57C G78C
U35A U57G C79G
U35A U57G U63A C77U
U35A U70C G73U C81U
U35C A60C C72A
U35C A62G G84U
U35C A74G
U35C A74U
U35C C68A C81A C83G
U35C C77A G85C
U35C C77U G86A
U35C C83A A87G
U35C C83U
U35C G66A
U35C G67A C83G
U35C G73A
U35C G78A
U35C G78C
U35C U57C U58G G59A
U35C U76A C83U
U35G A54U G66C
U35G A60C
U35G A60C G61C
U35G A60U
U35G A62G G66C
U35G A74U
U35G A89C
U35G C56A G61U U63A
U35G C56A U57A
U35G C56A U57C U58A C81U
U35G C56U U63C
U35G C68A G69A C75A
U35G C68A U71G G85U
U35G C68G A89G
U35G C75G
U35G C81G C83U
U35G C81U
U35G G59U G86C
U35G G61U
U35G G65C G85C
U35G G66A
U35G G66U
U35G G69A
U35G G69U
U35G G78A
U35G G78U C80G
U35G G86C A87U
U35G U55A U58A
U35G U55G
U35G U57G G67A
U35G U58A C80G
U35G U58G G59C G73A
U35G U76G C82G G85U
A54C A60U G84C
A54C C56A
A54C C56G A60C G66A
A54C C56G U70C G78C
A54C C68A U71G U76A
A54C C79U G88U
A54C C81G
A54C G59C A87G
A54C G59U G65A A74C
A54C G67U
A54C G69C
A54C G78U
A54C U55A C80U
A54C U55A G65C
A54C U57A G88A
A54C U57C G65A U70C A87G
A54C U63A G66C
A54C U70G
A54C U76G A89U
A54G
A54G A62G
A54G A89U
A54G C56G G59C U71A
A54G C64A
A54G C64G U71G
A54G C77G
A54G C77U C79U G88U
A54G C80U
A54G C81A C82G
A54G C82G
A54G G61A A89U
A54G G66C
A54G G67C U76A
A54G G69A
A54G G69C C81G
A54G G69U C77G
A54G G78A
A54G G78C
A54G G78U G88U A89C
A54G U57A G85U A87C
A54G U58A C64A C72A A89C
A54G U63A
A54G U70A A89G
A54G U71A
A54G U71G G73A
A54G U76G
A54U A60C U71G G85U
A54U A60G U70C
A54U A62C U70A
A54U A74C
A54U A87C
A54U C56G G85U
A54U C64U U71A C72A
A54U C72A
A54U C81A
A54U C82G C83U
A54U G59A
A54U G59C C64A A74G G84U
A54U G61A C64G
A54U G61U U76A
A54U G65C U76A
A54U G65U
A54U G69U
A54U U55G
A54U U58G A74C G84C
A54U U70C C80G
A54U U70G U76G
A54U U71A
A54U U76G G86A
U55A A60C G61U C79G
U55A A62U
U55A A62U C68G G69A
U55A A62U U76G G86C
U55A A87U
U55A A89U
U55A C64A U71C
U55A C79A G86A
U55A C79G
U55A C80A
U55A C80A G86C
U55A C80G C83G
U55A C83U
U55A G59C
U55A G59U G67C G85U
U55A G59U U70C
U55A G66A
U55A G66C
U55A G66C G69C
U55A G67U
U55A G69A C81A G88C
U55A G73U
U55A G78U C83U
U55A G86C
U55A G86U
U55A G88C
U55A U57C G66C A74U
U55A U57G C72A G78C
U55A U58A
U55A U58G C68G
U55A U71A A87U
U55C A60G C77A C83U
U55C A60U G69U
U55C A74C
U55C C56A
U55C C56G U58C
U55C C68G
U55C C72U
U55C C77U G78U
U55C C80U
U55C C81A
U55C C81U
U55C G59A
U55C G59C
U55C G65A A89C
U55C G65C
U55C G66A G84C G85C
U55C G66C
U55C G67C A89G
U55C G67U
U55C G73C U76C
U55C G78A
U55C G78C
U55C U57A G69U
U55C U57C U63C

Nonsense suppression, 0.0773:
A54C A60G

Nonsense suppression, 0.0575:
A54C A74G

Nonsense suppression, 0.0334:
C34G G61A

Nonsense suppression, 0.0513:
A54U C64U

Nonsense suppression, 0.965:
A54U A60U

Nonsense suppression, 0.279:
A54U A60C

Nonsense suppression, 0.0297:
C34U G61A

Nonsense suppression, 1.08:
A54U U76C

Nonsense suppression, 0.0479:
U55C C77A

Nonsense suppression, 1.05:
U55C C75A

Nonsense suppression, 0.164:
U55C G86C

Nonsense suppression, 0.035:
U55C C79G

Nonsense suppression, 0.026:
U55C U57C

Nonsense suppression, 0.377:
A54C U63A

Nonsense suppression, 1.04:
A54U

Nonsense suppression, 1.09:
A54C A60U

Nonsense suppression, 0.611:
A54U G61A

Nonsense suppression, 1.16:
A54C

Nonsense suppression, 0.0382:
A54C U57A

Nonsense suppression, 0.194:
A54C C80U
U55C G61A

Nonsense suppression, 0.0725:
A54C G86C

Nonsense suppression, 0.0314:
U55C C83G

Nonsense suppression, 0.0591:
A54C G73C

Nonsense suppression, 0.232:
A54C U76C

Nonsense suppression, 0.208:
A54U G85C

Nonsense suppression, 0.0263:
A54G C79U

Nonsense suppression, 0.0301:
A54C G84U

Source: the RNAGym collection of RNA variant scans (doi:10.1101/gad.245936.114)
